Laboratory results taken from PMC11094075.
No constants are given. Whether binding was seen depends on the method and setting. In cells and extracts the contact can be indirect. Some results given as binding are weak or reduced against the parent protein; the word gives no strength.

Sequences of proteins named here, by UniProt entry; tags and fusion partners are left off. A change or cut given only in a name is not applied to a line headed by its entry. A line that says so, or that is headed by a name, gives the form on record, which may keep a tag or linker. Residues count along the entry.
UniProt Q9UKV8: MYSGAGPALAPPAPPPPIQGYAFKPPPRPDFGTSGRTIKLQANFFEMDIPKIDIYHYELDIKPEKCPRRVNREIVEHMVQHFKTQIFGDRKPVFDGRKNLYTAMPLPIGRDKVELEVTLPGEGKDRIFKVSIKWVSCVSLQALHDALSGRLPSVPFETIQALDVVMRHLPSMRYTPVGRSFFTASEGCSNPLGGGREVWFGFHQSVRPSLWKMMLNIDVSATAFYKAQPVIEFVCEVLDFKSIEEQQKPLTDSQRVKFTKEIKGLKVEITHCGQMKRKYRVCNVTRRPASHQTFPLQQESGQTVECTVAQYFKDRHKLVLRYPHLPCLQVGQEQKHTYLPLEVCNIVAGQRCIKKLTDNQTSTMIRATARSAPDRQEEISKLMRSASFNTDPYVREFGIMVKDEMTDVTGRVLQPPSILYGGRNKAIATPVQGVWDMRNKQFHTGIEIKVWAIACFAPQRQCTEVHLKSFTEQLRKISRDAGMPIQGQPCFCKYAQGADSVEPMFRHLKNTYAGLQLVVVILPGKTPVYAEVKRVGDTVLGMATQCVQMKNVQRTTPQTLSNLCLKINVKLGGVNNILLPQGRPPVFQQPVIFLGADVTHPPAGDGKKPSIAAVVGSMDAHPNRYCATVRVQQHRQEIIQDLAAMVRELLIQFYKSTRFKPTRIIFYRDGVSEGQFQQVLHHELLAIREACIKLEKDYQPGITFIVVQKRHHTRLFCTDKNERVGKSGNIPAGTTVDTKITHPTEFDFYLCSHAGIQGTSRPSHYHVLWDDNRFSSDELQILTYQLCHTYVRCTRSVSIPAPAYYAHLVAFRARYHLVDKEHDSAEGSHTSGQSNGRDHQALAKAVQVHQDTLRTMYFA
HA-Ago2(1–580): residues 1-580 of Q9UKV8
HA-Ago2(1–445): residues 1-445 of Q9UKV8
HA-Ago2(1–226): residues 1-226 of Q9UKV8
HA-Ago2(1–200): residues 1-200 of Q9UKV8
HA-Ago2(1–175): residues 1-175 of Q9UKV8
HA-Ago2(73–859): residues 73-859 of Q9UKV8
HA-Ago2(175–859): residues 175-859 of Q9UKV8
eGFP-Ago2(175–226)-His: residues 175-226 of Q9UKV8
HA-Ago2(226–859): residues 226-859 of Q9UKV8
HA-Ago2 (WF199/200AA) (Q9UKV8, form named): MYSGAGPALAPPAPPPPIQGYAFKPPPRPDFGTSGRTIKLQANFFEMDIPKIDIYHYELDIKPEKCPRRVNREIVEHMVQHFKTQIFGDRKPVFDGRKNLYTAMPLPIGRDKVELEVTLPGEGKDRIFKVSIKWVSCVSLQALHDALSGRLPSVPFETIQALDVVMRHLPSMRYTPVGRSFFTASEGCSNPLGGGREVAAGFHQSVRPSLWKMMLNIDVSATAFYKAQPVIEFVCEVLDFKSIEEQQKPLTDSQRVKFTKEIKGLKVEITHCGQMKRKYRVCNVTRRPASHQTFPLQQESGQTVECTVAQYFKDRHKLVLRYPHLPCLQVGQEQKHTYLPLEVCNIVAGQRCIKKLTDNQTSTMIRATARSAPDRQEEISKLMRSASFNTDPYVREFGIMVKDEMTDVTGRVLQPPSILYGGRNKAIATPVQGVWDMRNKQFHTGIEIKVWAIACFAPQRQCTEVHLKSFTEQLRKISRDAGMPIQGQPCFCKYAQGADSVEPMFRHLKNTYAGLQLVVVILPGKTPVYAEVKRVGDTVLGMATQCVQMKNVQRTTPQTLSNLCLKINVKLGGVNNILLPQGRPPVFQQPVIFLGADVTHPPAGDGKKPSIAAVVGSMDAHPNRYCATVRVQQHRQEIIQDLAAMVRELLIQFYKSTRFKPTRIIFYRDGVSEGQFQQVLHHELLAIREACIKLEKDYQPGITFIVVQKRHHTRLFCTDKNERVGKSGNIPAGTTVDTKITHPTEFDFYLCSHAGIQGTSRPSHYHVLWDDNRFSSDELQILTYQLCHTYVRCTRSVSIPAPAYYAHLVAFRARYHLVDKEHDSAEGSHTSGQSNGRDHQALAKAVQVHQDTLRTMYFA
HA-tagged CBM-deleted (amino acids 175–226) Ago2 (HA-Ago2∆), in Ago2-knockout A549 cells (Q9UKV8, form named): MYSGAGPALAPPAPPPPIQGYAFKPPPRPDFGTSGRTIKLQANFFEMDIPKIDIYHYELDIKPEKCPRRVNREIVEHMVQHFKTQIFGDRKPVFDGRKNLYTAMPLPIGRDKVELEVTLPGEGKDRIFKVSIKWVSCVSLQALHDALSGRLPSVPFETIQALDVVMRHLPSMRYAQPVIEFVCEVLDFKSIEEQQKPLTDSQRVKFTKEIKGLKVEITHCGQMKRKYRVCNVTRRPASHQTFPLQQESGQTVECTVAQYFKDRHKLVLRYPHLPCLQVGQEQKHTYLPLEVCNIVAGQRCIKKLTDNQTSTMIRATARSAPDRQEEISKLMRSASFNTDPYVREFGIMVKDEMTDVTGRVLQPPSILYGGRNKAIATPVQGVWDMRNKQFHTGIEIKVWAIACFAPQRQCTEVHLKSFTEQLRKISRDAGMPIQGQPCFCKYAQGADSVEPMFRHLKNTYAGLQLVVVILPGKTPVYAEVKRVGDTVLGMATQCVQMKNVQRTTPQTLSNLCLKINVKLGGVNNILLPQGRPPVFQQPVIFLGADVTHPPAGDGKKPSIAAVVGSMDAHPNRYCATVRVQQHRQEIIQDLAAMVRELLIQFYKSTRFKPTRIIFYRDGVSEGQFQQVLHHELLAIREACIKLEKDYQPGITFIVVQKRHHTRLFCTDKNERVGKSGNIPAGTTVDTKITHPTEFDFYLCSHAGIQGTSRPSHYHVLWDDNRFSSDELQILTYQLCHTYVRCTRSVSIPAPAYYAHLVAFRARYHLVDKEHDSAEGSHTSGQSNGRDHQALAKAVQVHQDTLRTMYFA
CBM-mutated HA-Ago2 (WF199/200/202/211A) (Q9UKV8, form named): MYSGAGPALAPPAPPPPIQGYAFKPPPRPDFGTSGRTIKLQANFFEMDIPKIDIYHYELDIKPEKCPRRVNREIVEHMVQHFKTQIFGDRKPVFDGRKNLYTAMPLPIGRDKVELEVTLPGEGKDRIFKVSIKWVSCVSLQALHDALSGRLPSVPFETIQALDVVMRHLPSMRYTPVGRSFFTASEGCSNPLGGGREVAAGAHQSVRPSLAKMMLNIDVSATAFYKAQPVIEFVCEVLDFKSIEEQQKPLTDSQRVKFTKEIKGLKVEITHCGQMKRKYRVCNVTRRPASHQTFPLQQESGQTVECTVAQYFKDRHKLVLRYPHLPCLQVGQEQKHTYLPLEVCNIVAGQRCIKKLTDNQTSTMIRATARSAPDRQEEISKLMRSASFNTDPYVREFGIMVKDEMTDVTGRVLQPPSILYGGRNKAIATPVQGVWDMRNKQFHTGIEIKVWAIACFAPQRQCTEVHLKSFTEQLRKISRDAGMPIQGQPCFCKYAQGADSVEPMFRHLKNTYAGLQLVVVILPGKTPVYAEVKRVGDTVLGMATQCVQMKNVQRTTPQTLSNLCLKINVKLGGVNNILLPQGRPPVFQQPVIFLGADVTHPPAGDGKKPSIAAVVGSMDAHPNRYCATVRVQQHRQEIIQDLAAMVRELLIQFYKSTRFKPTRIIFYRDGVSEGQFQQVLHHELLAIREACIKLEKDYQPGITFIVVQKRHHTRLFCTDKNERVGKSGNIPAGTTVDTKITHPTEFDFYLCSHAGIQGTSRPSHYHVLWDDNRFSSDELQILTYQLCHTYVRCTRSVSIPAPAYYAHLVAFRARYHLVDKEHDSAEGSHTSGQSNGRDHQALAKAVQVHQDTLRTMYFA
UniProt Q03135: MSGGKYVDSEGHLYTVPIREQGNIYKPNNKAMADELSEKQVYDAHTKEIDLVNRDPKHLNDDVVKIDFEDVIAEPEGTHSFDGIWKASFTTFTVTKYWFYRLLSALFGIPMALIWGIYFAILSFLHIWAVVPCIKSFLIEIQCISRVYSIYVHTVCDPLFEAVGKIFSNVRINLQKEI
CAV1-Flag(∆84–102) (Q03135, form named): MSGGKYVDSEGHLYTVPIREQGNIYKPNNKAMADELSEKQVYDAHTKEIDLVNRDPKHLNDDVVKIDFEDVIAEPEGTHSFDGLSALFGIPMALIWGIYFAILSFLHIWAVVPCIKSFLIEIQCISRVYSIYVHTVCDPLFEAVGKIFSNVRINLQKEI
CAV1-Flag(∆61–84) (Q03135, form named): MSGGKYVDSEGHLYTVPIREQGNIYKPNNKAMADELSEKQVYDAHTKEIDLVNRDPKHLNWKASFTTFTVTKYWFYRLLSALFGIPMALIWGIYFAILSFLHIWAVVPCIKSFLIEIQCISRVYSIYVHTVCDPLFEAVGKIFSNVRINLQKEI

What was measured:
[1] = molecular target: HA-tagged human Ago2 (HA-Ago2), full length, wild type (human) (UniProt Q9UKV8); test: co-IP; proteins co-expressed in HEK293 cells; IP with anti-HA (anti-His for the eGFP fusions), blot with anti-Flag or anti-His; PBS with 0.5% Nonidet P-40, 4 °C
HA-Ago2(E197F) (human) = HA-Ago2(E197F) (human) (UniProt Q9UKV8); test: as above
[2] = molecular target: HA-Ago2 (WF199/200AA) (human) (UniProt Q9UKV8); test: as above
[3] = molecular target: HA-Ago2K212R, in HEK293 (human) (UniProt Q9UKV8); test: as above
HA-Ago2 (S387A) (human) = HA-Ago2 (S387A) (human) (UniProt Q9UKV8); test: as above
HA-Ago2 (S387E) (human) = HA-Ago2 (S387E) (human) (UniProt Q9UKV8); test: as above
HA-Ago2(175–859) (human) = HA-Ago2(175–859) (human) (UniProt Q9UKV8); test: as above
[4] = molecular target: 175–226-deleted HA-Ago2(∆175–226), in HEK293 (human) (UniProt Q9UKV8); test: as above
[5] = molecular target: CBM-mutated HA-Ago2 (WF199/200/202/211A) (human) (UniProt Q9UKV8); test: as above
HA-Ago2(1–226) (human) = HA-Ago2(1–226) (human) (UniProt Q9UKV8); test: as above
HA-Ago2(E186F) (human) = HA-Ago2(E186F) (human) (UniProt Q9UKV8); test: as above
HA-Ago2(1–200) (human) = HA-Ago2(1–200) (human) (UniProt Q9UKV8); test: as above
HA-Ago2(1–175) (human) = HA-Ago2(1–175) (human) (UniProt Q9UKV8); test: as above
[6] = molecular target: eGFP-Ago2(175–226)-His (human) (UniProt Q9UKV8); test: as above
HA-Ago2(1–445) (human) = HA-Ago2(1–445) (human) (UniProt Q9UKV8); test: as above
HA-Ago2(226–859) (human) = HA-Ago2(226–859) (human) (UniProt Q9UKV8); test: as above
HA-Ago2(73–859) (human) = HA-Ago2(73–859) (human) (UniProt Q9UKV8); test: as above
HA-Ago2 (F202A) (human) = HA-Ago2 (F202A) (human) (UniProt Q9UKV8); test: as above
HA-Ago2(1–580) (human) = HA-Ago2(1–580) (human) (UniProt Q9UKV8); test: as above
HA-Ago2 (W211A) (human) = HA-Ago2 (W211A) (human) (UniProt Q9UKV8); test: as above
HA-Ago2(D218F) (human) = HA-Ago2(D218F) (human) (UniProt Q9UKV8); test: as above
[7] = molecular target: Argonaute-2 (Ago2), endogenous (human (endogenous in human cell lines and tumors)) (UniProt Q9UKV8); test: co-IP; endogenous proteins in A549 and HCC1806 cells treated with P2 or P2S peptide; IP with anti-Ago2, blot for CAV1
[8] = molecular target: HA-tagged CBM-deleted (amino acids 175–226) Ago2 (HA-Ago2∆), in Ago2-knockout A549 cells (human) (UniProt Q9UKV8); test: co-IP; A549 Ago2-KO/HA-AID-Ago2Wt/HA-Ago2∆ cells treated with IAA (only HA-Ago2∆ left); IP with anti-HA, blot for CAV1
[9] = molecular target: Argonaute-2 (Ago2), endogenous (human (endogenous in human cell lines and tumors)) (UniProt Q9UKV8); test: co-IP; human primary breast tumors and paired lymphatic metastases; IP with anti-Ago2, blot for CAV1
[10] = molecular target: Argonaute-2 (Ago2), endogenous (human (endogenous in human cell lines and tumors)) (UniProt Q9UKV8); test: co-IP; A549 cell-derived extracellular vesicles; IP with anti-Ago2, blot for CAV1
[11] = molecular target: Argonaute-2 (Ago2), endogenous (human (endogenous in human cell lines and tumors)) (UniProt Q9UKV8); test: condition: only in normal epithelial cells (BEAS-2B, HPNE, HMLE); co-IP; endogenous proteins in lysates of normal epithelial cells (BEAS-2B, HPNE, HMLE); IP with anti-Ago2, blot for CAV1
[12] = molecular target: Argonaute-2 (Ago2), endogenous (human (endogenous in human cell lines and tumors)) (UniProt Q9UKV8); test: co-IP; endogenous proteins in lysates of cancer cells (A549, H1299, BxPC-3, HCC1806, 104-S, C4-2, R-1); IP with anti-Ago2, blot for CAV1; PBS with 0.5% Nonidet P-40 and 5% BSA, 4 °C; also cells treated with vehicle, Nexturastat A, Sirtinol, EX-527 or TM
[13] = molecular target: HA-Ago2K212R, in Ago2-knockout A549 and HCC1806 cells (human) (UniProt Q9UKV8); test: co-IP; Ago2-knockout A549 and HCC1806 cells expressing HA-Ago2Wt, HA-Ago2K212A or HA-Ago2K212R; IP with anti-HA, blot for endogenous CAV1; ratio pCAV1/pHA; vehicle or TM (10 µM)

Measured: binding

CAV1-Flag(∆84–102) (from UniProt Q03135 1-178)
no binding: [1]

CSD-mutated CAV1-Flag (F92A/V94A) (from UniProt Q03135 1-178)
no binding: [1]

CAV1-Flag(102–178) (from UniProt Q03135 102-178) (domain or fragment)
no binding: [1]

His-CAV1(82–101) mRuby (from UniProt Q03135 82-101) (domain or fragment)
binds: [1]

Flag-labeled human CAV1 (CAV1-Flag), full length, wild type (from UniProt Q03135 1-178)
no binding: [4] | [5] | HA-Ago2(1–175) (human) | HA-Ago2(226–859) (human)
not listed: [7] | [8] | [9] | [10] | [11] | [12] | [13]
binds: all other assays above

Caveolin-1 (CAV1), endogenous (from UniProt Q03135 1-178)
binds: [7] | [9] | [10] | [12] | [13]
no binding: [8] | [11]

CAV1-Flag(61–178) (from UniProt Q03135 61-178) (domain or fragment)
binds: [1]

CAV1-Flag(∆61–84) (from UniProt Q03135 1-178)
binds: [1]
